These results are taken from the antibiotic and cytotoxicity screens of Wong et al. (2023).

One assay concerns HSkMC. The assay can be described thus: cytotoxicity call (relative viability < 0.9). The conditions noted are these: 10 µM.
A further assay concerns HepG2. The assay is described as follows: cytotoxicity call (relative viability < 0.9). The note with it: 10 µM.
The test system of a further assay is S. aureus RN4220. The assay can be described thus: growth inhibition call (relative growth <= 0.2). The note with it: 50 µM.

Some of the results follow.

For the compound `C[C@@H]1CN([C@@H](C)CO)C(=O)c2cccc(NC(=O)c3ccncc3)c2O[C@H]1CN(C)Cc1ccc(-c2ccccc2)cc1`, the cytotoxicity call in the assay with HSkMC and in the assay on HepG2 was “inactive” throughout. Moreover, in the assay with S. aureus RN4220, the growth inhibition call was “inactive”.
Take `COc1ccc(NC(=O)N(C)C[C@H]2OCCCC[C@@H](C)Oc3ccc(NC(=O)Nc4ccc(F)cc4)cc3C(=O)N([C@H](C)CO)C[C@H]2C)cc1`: the cytotoxicity call in the assay on HSkMC and with HepG2 was “inactive” each time. Further, the growth inhibition call in the assay on S. aureus RN4220 was “inactive”.
On to `C[C@@H]1CN([C@H](C)CO)C(=O)c2cc(NC(=O)CCN3CCOCC3)ccc2O[C@H]1CN(C)Cc1ccc(C(=O)O)cc1`, for which the cytotoxicity call with HSkMC and in the assay with HepG2 was “inactive” throughout. In the assay on S. aureus RN4220, the growth inhibition call was “inactive”.
On to `Cc1noc(C)c1NC(=O)Nc1ccc2c(c1)CC(=O)N([C@H](C)CO)C[C@@H](C)[C@H](CN(C)S(=O)(=O)c1cn(C)cn1)O2`, for which the cytotoxicity call with HSkMC and with HepG2 was “inactive” throughout. In the assay with S. aureus RN4220, the growth inhibition call is “inactive”.
Turning to `COc1ccc(-c2cnc3c(c2)C(=O)N([C@H](C)CO)C[C@H](C)[C@H](CN(C)S(=O)(=O)c2ccccc2)O3)cc1`, the cytotoxicity call with HSkMC and with HepG2 was “inactive” in each case. Further, in the assay on S. aureus RN4220, the growth inhibition call is “inactive”.
As for `C[C@@H]1CN([C@H](C)CO)C(=O)c2cc(NS(=O)(=O)c3ccc(Cl)cc3)ccc2O[C@@H](C)CCCCO[C@H]1CN(C)C(=O)Nc1ccc(C(F)(F)F)cc1`, the cytotoxicity call in the assay on HSkMC and in the assay with HepG2 was “active” in each case. In addition, the growth inhibition call with S. aureus RN4220 was “inactive”.
As to `C[C@H](CO)N1C[C@H](C)[C@H](CN(C)Cc2ccc(-c3ccccc3)cc2)Oc2ccc(NS(=O)(=O)c3ccccc3)cc2CC1=O`, the cytotoxicity call in the assay on HSkMC is “inactive”. Moreover, the cytotoxicity call in the assay on HepG2 is “active”. The growth inhibition call with S. aureus RN4220 was “inactive”.
On to `C[C@H](CO)N1C[C@H](C)[C@@H](CN(C)C(=O)Nc2cccc3ccccc23)Oc2ccc(NC(=O)Cc3ccccc3)cc2C1=O`, for which the cytotoxicity call with HSkMC and with HepG2 was “inactive” throughout. In addition, the growth inhibition call in the assay with S. aureus RN4220 was “inactive”.
Consider `CNC[C@H]1COCCO1`, for which the cytotoxicity call with HSkMC and with HepG2 was “inactive” each time. Besides, in the assay with S. aureus RN4220, the growth inhibition call is “inactive”.
As to `CC(=O)Oc1cc2c(s1)CCN(C(C(=O)C1CC1)c1ccccc1F)C2` (stereo not given), the cytotoxicity call in the assay on HSkMC and with HepG2 was “inactive” in each case. Also, the growth inhibition call in the assay on S. aureus RN4220 is “inactive”.
For the compound `CC(C)NC(=O)Nc1ccc2c(c1)C(=O)N([C@@H](C)CO)C[C@@H](C)[C@@H](CN(C)S(=O)(=O)c1ccc(F)cc1)O2`, the cytotoxicity call in the assay on HSkMC and in the assay with HepG2 was “inactive” each time. The growth inhibition call in the assay on S. aureus RN4220 was “inactive”.
Take `NC(=O)CC[C@H](N)C(=O)O`: the cytotoxicity call with HSkMC and in the assay on HepG2 was “inactive” each time. The growth inhibition call with S. aureus RN4220 is “inactive”.
For the compound `C[C@H]1CN([C@@H](C)CO)C(=O)c2cccc(NS(=O)(=O)c3cn(C)cn3)c2O[C@@H]1CN(C)S(=O)(=O)c1ccc(Cl)cc1`, the cytotoxicity call in the assay with HSkMC and in the assay on HepG2 was “inactive” each time. For the same compound, in the assay on S. aureus RN4220, the growth inhibition call was “inactive”.
Consider `C[C@@H]1CN([C@@H](C)CO)C(=O)c2cc(NC(=O)Nc3ccc4c(c3)OCO4)ccc2O[C@H]1CN(C)C(=O)Nc1cccc2ccccc12`, for which the cytotoxicity call in the assay with HSkMC and with HepG2 was “inactive” each time. In addition, in the assay on S. aureus RN4220, the growth inhibition call was “inactive”.
`C[C@@H]1CN([C@@H](C)CO)C(=O)c2cccc(NC(=O)CCCCCC(=O)Nc3ccccc3N)c2O[C@H]1CN(C)Cc1ccc(Oc2ccccc2)cc1`: the cytotoxicity call in the assay on HSkMC and in the assay with HepG2 was “inactive” throughout. In addition, the growth inhibition call with S. aureus RN4220 was “inactive”.
As to `NCCCC[C@@H]1NC(=O)[C@H](CCC(=O)O)NC(=O)c2cc([N+](=O)[O-])ccc2OCC[C@@H](C(=O)NCC(=O)O)NC1=O`, the cytotoxicity call with HSkMC and in the assay on HepG2 was “inactive” in each case. The growth inhibition call with S. aureus RN4220 is “inactive”.
Regarding `C[C@@H]1CCCCO[C@@H](CN(C)C(=O)Nc2ccccc2)[C@@H](C)CN([C@@H](C)CO)C(=O)c2cc(NS(=O)(=O)c3ccc(Cl)cc3)ccc2O1`, the cytotoxicity call in the assay on HSkMC and in the assay with HepG2 was “inactive” throughout. The growth inhibition call with S. aureus RN4220 is “inactive”.
For the compound `CN(CCO)S(=O)(=O)c1ccc2c(c1)C(=NO)c1cc(S(=O)(=O)N(C)CCO)ccc1-2`, the cytotoxicity call in the assay with HSkMC and with HepG2 was “inactive” each time. Moreover, the growth inhibition call in the assay on S. aureus RN4220 was “inactive”.
For the compound `C[C@H]1CCCCO[C@H](CN(C)S(=O)(=O)c2ccccc2)[C@@H](C)CN([C@@H](C)CO)C(=O)c2cc(NC(=O)CCC(F)(F)F)ccc2O1`, the cytotoxicity call in the assay on HSkMC and with HepG2 was “inactive” in each case. In the assay with S. aureus RN4220, the growth inhibition call was “inactive”.
Take `C[C@H]1CN([C@@H](C)CO)C(=O)CCCn2cc(nn2)CO[C@H]1CN(C)C(=O)Nc1ccc2c(c1)OCCO2`: the cytotoxicity call in the assay on HSkMC and in the assay with HepG2 was “inactive” in each case. The growth inhibition call in the assay with S. aureus RN4220 is “inactive”.
As for `C[C@@H]1CCCCO[C@H](CN(C)S(=O)(=O)c2ccc(F)cc2)[C@H](C)CN([C@@H](C)CO)C(=O)c2cc(NC(=O)Cc3ccccc3)ccc2O1`, the cytotoxicity call in the assay on HSkMC and in the assay on HepG2 was “inactive” throughout. Further, the growth inhibition call with S. aureus RN4220 is “inactive”.
Take `O=C(C[C@H]1C[C@@H]2c3cc(NC(=O)Nc4ccccc4)ccc3O[C@@H]2[C@H](CO)O1)NCCN1CCCCC1`: the cytotoxicity call in the assay on HSkMC (human skeletal muscle cells) and in the assay on HepG2 was “inactive” each time. In the assay on S. aureus RN4220, the growth inhibition call was “inactive”.
Regarding `C[C@@H]1CN([C@H](C)CO)C(=O)c2cccc(NS(C)(=O)=O)c2O[C@@H]1CN(C)C(=O)Nc1ccc(C(F)(F)F)cc1`, the cytotoxicity call with HSkMC and in the assay with HepG2 was “inactive” in each case. Also, the growth inhibition call in the assay with S. aureus RN4220 was “active”.
Regarding `COCC#Cc1ccc([C@@H]2[C@H](CO)N3C(=O)CN(C(=O)C4CCOCC4)C[C@@H]23)cc1`, the cytotoxicity call in the assay with HSkMC and in the assay with HepG2 was “inactive” throughout. Moreover, the growth inhibition call in the assay on S. aureus RN4220 is “inactive”.
For the compound `COc1cc(-c2cc(=O)c3c(s2)N(Cc2ccco2)[C@@H](c2ccc(O)c(OC)c2)CC3=O)ccc1O`, the cytotoxicity call in the assay with HSkMC and in the assay with HepG2 was “inactive” throughout. Further, the growth inhibition call with S. aureus RN4220 was “inactive”.
